# Out of some 45,000 compounds screened, about 200 (0.44%) were called active. Inconclusive results (about 7%) are left out. Calls follow the shape of the dose curve; as a rule, active = well fitted activation curve with a large enough effect; inconclusive = small, poorly fitted or top-dose-only effect; inactive = no such curve, though single readings can be large or run the other way. The list shows a part of the results.
# Test: qHTS of TDP-43 Inhibitors: NCGC Sytravon Library Screen; also: nearly all actives have a fitted effect of over 55% in size; as to growth rescue (activation): 0% is about no effect
# Conditions: yeast TDP-43 toxicity rescue, BacTiter-Glo growth, 24 h; series mostly up to 46.1 µM; growth rescue (activation): at the top concentration
# Outline: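 TDP-43-expressing yeast, pregrown in raffinose, seeded at OD600 0.02 in galactose medium with compound for 24 hr at 30 deg C. Growth read by BacTiter-Glo luminescence, so rescue of toxicity appears as activation.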
# Potency is read from the fitted curve at half-maximal effect.
SMILES,growth rescue (activation),Potency
O=C(NCc1ccncc1)c1ccc(-c2ccc(F)c(F)c2)c2ccoc12,inactive: 14.9%,–
OC(CNCc1ccc(-c2ccccc2)cc1)c1ccccc1 (configuration not stated),inactive: -1.56%,–
C/C(CC(=O)Nc1ccc2c(c1)OCCO2)=N\NC(=O)c1cccc(O)c1,inactive: 11.3%,–
COc1ccc(N2CCN(c3ccnc4cc(Cl)ccc34)CC2)cc1,inactive: 6.68%,–
CCCNC(=O)CSc1nc2ccccc2c(=O)n1CCC,inactive: 2.08%,–
Oc1ccc(CN2CCC(Cc3ccccc3)CC2)c2cccnc12,inactive: -19.6%,–
COc1ccc2c(c1OC)C(=O)OC2Nc1ccccn1 (configuration not stated),inactive: -5.18%,–
Cc1ccc(-c2nn(-c3ccccc3)cc2C(=O)OCC(=O)Nc2ncc(Cl)cc2Cl)cc1,inactive: -1.16%,–
O=C(NC1CCN(Cc2ccccc2)CC1)C1CCN(S(=O)(=O)c2ccc(Cl)cc2)CC1,inactive: -4.87%,–
COc1ccc(C(=O)/C=C/Nc2ccc(S(=O)(=O)Nc3nc(C)cc(C)n3)cc2)c(OC)c1,inactive: 27.5%,–
COC(=O)c1ccc(NC(=O)c2ccccc2-c2ccccc2C(=O)O)cc1,inactive: 6.6%,–
O=C(CCN1C(=O)/C(=C/c2ccccc2Cl)SC1=S)N1CCCC1,inactive: -9.34%,–
Cc1ccc(S(=O)(=O)NCCc2cc3ccc(C)c(C)c3[nH]c2=O)cc1,inactive: 6.93%,–
CCOC(=O)c1[nH]c(C)c(CC(C)C)c1C,inactive: 21.2%,–
CC(C)(C)c1ccc(CC(=O)N2CCC2(C)C(=O)NS(=O)(=O)c2ccc(Cl)cc2)cc1 (configuration not stated),inactive: 6.04%,–
CC(C)C(OC(=O)c1cc2c(s1)CCCCC2)C(=O)NC(N)=O (configuration not stated),inactive: 32.5%,–
CCOc1ccc(C(=O)N[C@H](C(=O)Nc2ccccc2OC)C(C)C)cc1,inactive: 13%,–
O=C(Nc1cccc(S(=O)(=O)N2CCOCC2)c1)c1ccc(=O)[nH]c1,inactive: 16.1%,–
COCCNC(=O)/C(C#N)=C/c1ccc2c(c1)OCO2,inactive: -1.46%,–
NC(=O)CSc1nc2c(c(=O)n1-c1ccccc1)C1(CCCCC1)Cc1ccccc1-2,inactive: 4.14%,–
CCOc1ccc(C(=O)NC(C(=O)NCCc2ccc(OC(F)F)cc2)C(C)C)cc1 (configuration not stated),inactive: -6.79%,–
Cc1sc(NC(=O)Cn2c(=O)oc3ccccc32)nc1-c1ccc(Cl)cc1,inactive: 6.23%,–
COc1ccc(CNC(=O)c2ccc3c(c2)N(Cc2ccccc2)C(=O)c2ccccc2S3(=O)=O)cc1,inactive: 25.7%,–
O=C(NC1=C(Nc2ccc(Cl)cc2)C(=O)c2ccccc2C1=O)c1ccccc1,inactive: 17.9%,–
CC12CCC(C(=O)N(CC(O)CN3CCN(Cc4ccccc4)CC3)C1=O)C2(C)C (configuration not stated),inactive: -3.66%,–
COc1cccc(NC(=O)CSc2nnc(-c3cccs3)n2C)c1,inactive: 5.25%,–

SMILES,growth rescue (activation),Potency
CN1CCN(C(=O)Cn2c(C(F)(F)F)nc3ccccc32)CC1,inactive: 27.8%,–
COc1ccc(N(C(=O)c2ccn[nH]2)C(C(=O)NC2CCCC2)c2ccc(F)cc2)cc1 (configuration not stated),inactive: 4.78%,–
CNC(=O)C(=O)Nc1c(O)c2ccccc2[nH]c1=O,inactive: -18.2%,–
Cc1cc(N2CCN(c3ccccn3)CC2)n2c(nc3ccccc32)c1C#N,inactive: 4.97%,–
CCOc1cc(S(=O)(=O)NCc2ccccc2)ccc1Br,inactive: 33.7%,–
NC(=O)c1cc2cc(Cl)ccc2o/c1=N/NC(=O)c1cccs1,inactive: -20.1%,–
CCc1ccc2c(CN3CCOCC3)cc(=O)oc2c1,inactive: -17.2%,–
CN(C)S(=O)(=O)c1ccc(NC(=O)CN2C(=O)NC3(CCCC3)C2=O)cc1,inactive: -1.16%,–
C=C(C)c1cccc(C(C)(C)NC(=O)Nc2ccccc2OCC)c1,inactive: 0.173%,–
COc1cc(/C=C(/NC(=O)c2ccccc2)C(=O)N2CCOCC2)c([N+](=O)[O-])cc1OC,inactive: 19%,–
CCCCn1c(N)c(N(CC(C)C)C(=O)CCCSc2nncs2)c(=O)[nH]c1=O,inactive: 1.84%,–
O=C(c1ccccc1)N1CCCCC(Cl)C1=O (configuration not stated),inactive: -12.3%,–
Cc1ccc(NC(=O)COC(=O)C2COc3ccccc3O2)cc1S(=O)(=O)N1CCOCC1 (configuration not stated),inactive: -9.95%,–
Cc1ccc(NC(=O)CCSCCc2ccccn2)cc1,inactive: 5.86%,–
Cc1ccc(CC2CC(=O)N(Cc3ccco3)C2=O)cc1 (configuration not stated),inactive: 28.4%,–
CC(C)C(OC(=O)c1nsc(Cl)c1Cl)C(=O)NC(C)(C)C (configuration not stated),inactive: 11.5%,–
Cn1c(N)c(C(=O)COC(=O)c2ccc([N+](=O)[O-])o2)c(=O)n(C)c1=O,inactive: -20.1%,–
COc1ccc(Cl)cc1N(C(=O)c1ccco1)C(C(=O)NC1CCCC1)c1cccnc1 (configuration not stated),inactive: -0.725%,–
COCOc1cccc(CN2CCC(C)(Oc3cccc(C#N)c3)C2)c1 (configuration not stated),inactive: -0.58%,–
CC(C)c1ccc(NC(=O)N2CCCC2C(=O)Nc2ccc(-n3cnnn3)cc2)cc1 (configuration not stated),inactive: -0.2%,–
COCCNC(=O)C1CCCN(C(=O)c2ccc3c(c2)C(C)(C)CCC3(C)C)CC1 (configuration not stated),inactive: 16.6%,–
COc1cc(NC(=O)c2cccs2)c(C(=O)OCC(=O)NCc2ccco2)cc1OC,inactive: 4.64%,–
Cc1c(CCC(=O)O)c(=O)oc2cc3occ(-c4ccc(Br)cc4)c3cc12,inactive: -4.03%,–
COc1cc(/C=C2\C(=O)ON=C2c2ccccc2)cc(OC)c1OC,–,active: 11.2 µM
Nn1cc(-c2ccccc2)nc1SCC(=O)Nc1cccc(S(N)(=O)=O)c1,inactive: 4.98%,–
O=C(CSc1n[nH]c(-c2ccccc2)n1)NCc1cccc(C(=O)O)c1,inactive: -2.76%,–
